Source: patent US20060141460A1, “Assays for fprl-1 ligands” (AstraZeneca A B, priority 2002, published 2006)
Like-named read-outs stand apart in the source and are kept apart here. Values belong to the molecule of their own block, whether it stands above or below them. Where no end group is shown, it is not given here.

Key:
FPRL-1 = biological target: T1, FPRL-1 (Homo sapiens, UniProt P25090); experiment: FLIPR intracellular calcium mobilization in HEK-293s or CHO cells expressing FPRL-1; type: cell-based; details: for Emax: HEK-293s transiently expressing hFPRL-1 in Gα16 background
T1 sequence (P25090 1-351): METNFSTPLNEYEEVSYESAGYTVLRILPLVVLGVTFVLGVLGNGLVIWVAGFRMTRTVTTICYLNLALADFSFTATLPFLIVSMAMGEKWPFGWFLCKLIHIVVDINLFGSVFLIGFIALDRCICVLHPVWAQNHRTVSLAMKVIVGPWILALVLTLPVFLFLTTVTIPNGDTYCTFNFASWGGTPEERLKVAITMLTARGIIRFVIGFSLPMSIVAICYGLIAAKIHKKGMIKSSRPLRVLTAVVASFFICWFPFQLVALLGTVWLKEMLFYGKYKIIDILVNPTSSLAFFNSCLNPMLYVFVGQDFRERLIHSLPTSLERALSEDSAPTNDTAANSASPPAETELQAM
Experimental: A stable receptor pool of FPRL-1 was developed by applying an antibiotic selection (G418, 1 mg/ml) and the cells were maintained in this selection medium.
A functional assay was performed with FLIPR (Fluorescent Imaging Plate Reader, Molecular Devices, Sunnyvale, Calif.) using the fluorescent calcium indicator Fluo-3 (Molecular Probes, Inc., Eugene, Oreg.) on a 96-well platform. […] On the day of the experiment, the FPRL-1-transfected cells were loaded with fluorescent solution (Dulbecco's modified medium containing 4 μM Fluo-3 and 20% pluronic acid). The cells were incubated at 37° C. for one hour in a humidified chamber. Following the incubation step, cells were washed five times in Hanks' with 20 mM Hepes and 0.1% BSA (pH 7.4). The cells were analyzed using the FLIPR system to measure the mobilization of intracellular calcium in response to different compounds.
Cell lines transiently expressing human FPRL-1 were stimulated with compounds, and calcium responses were compared to parental cells.

CCR1 receptor = biological target: T2, CCR1 receptor (UniProt P32246); experiment: cell-based or functional assay
T2 sequence (looked up): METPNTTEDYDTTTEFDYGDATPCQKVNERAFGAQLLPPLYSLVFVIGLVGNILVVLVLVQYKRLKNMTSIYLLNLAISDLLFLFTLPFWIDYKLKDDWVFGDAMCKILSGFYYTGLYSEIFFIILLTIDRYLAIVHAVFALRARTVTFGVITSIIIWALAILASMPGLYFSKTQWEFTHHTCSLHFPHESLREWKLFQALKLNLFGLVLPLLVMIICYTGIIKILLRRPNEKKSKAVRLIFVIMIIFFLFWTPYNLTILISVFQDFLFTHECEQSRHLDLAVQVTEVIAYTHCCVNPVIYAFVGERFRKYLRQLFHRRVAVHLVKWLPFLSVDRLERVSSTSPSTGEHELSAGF

[1] = biological target: human formyl peptide receptor-like-1 (FPRL-1) receptor (human) (UniProt P25090); experiment: cell-based or functional assay
CCR1 = biological target: T3, CCR1 (Homo sapiens, UniProt P32246); experiment: [Ca2+]i release in HEK-293s cells stably expressing CCR1; type: cell-based; details: CCR1 stably expressed in HEK-293s cells; mean±s.e. mean
T3 construct: expressed in transfected cells
T3 sequence (P32246 1-355): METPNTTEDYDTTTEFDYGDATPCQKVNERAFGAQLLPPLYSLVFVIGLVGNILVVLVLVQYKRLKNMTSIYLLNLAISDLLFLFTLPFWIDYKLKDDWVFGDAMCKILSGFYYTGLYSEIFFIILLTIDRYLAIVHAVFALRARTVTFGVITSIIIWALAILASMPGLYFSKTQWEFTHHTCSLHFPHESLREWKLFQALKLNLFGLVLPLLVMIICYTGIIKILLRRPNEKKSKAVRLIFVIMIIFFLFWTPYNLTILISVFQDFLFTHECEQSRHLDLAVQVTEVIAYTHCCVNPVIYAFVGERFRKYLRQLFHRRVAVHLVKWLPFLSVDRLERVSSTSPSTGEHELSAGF

[2] = biological target: human formyl peptide receptor-like-1 (FPRL-1) receptor (human) (UniProt P25090); experiment: cell-based or functional assay; remark: listed apart in the source
[3] = HEK-293s cells co-expressing Gα16 and FPRL-1, mean±s.e. mean

Molecule: CCCCC[C@H](O)/C=C/C=C\C=C\C=C\[C@@H](O)[C@@H](O)CCCC(=O)O [Lipoxin A4 (LXA4), Lipoxin A4]
Intracellular Ca2+ mobilization pEC50 (n = 3) (FPRL-1; [3]): <6.0 | pEC50 at FPRL-1 (FPRL-1; calcium mobilization, CHO and HEK-293s cells co-expressing Gα16 and FPRL-1): < 6

Molecule: CSCC[C@H](NC(=O)[C@@H](NC(=O)[C@H](CCSC)NC(=O)[C@H](Cc1ccc(O)cc1)NC(=O)[C@H](CCCCN)NC(=O)[C@@H](N)Cc1c[nH]c2ccccc12)C(C)C)C(N)=O [W-peptide]
Emax (FPRL-1; n = 1): 13252 RFU | Emax (FPRL-1; n = 2): 13326 RFU

Molecule: RANTES (from UniProt P13501 24-91) (ligand)
pEC50 (n = 4), [Ca2+]i release in HEK-293s cells stably expressing CCR1 (-log of the EC50) (CCR1 receptor): 9.57

Molecule: RANTES: a CCR1 agonist
pEC50 (n = 4) (CCR1): 9.57±0.06

Molecule: SHAAG peptide
Intracellular Ca2+ mobilization pEC50 (n = 3), HEK-293s cells (-log of the EC50) [1]: 7.15

B1: Serum Amyloid A protein (SAA) (ligand, UniProt P0DJI8 19-122, looked up, species assumed)
Serum amyloid A-1 protein: RSFFSFLGEAFDGARDMWRAYSDMREANYIGSDKYFHARGNYDAAKRGPGGAWAAEVITDARENIQRFFGHGAEDSLADQAANEWGRSGKDPNHFRPAGLPEKY
Intracellular Ca2+ mobilization pEC50 (n = 3), HEK-293s cells (-log of the EC50) [2]: < 6 | Intracellular Ca2+ mobilization pEC50 (n = 3) (FPRL-1; [3]): <6.0

The remaining lines, values ahead:

pEC50 (n = 4), [Ca2+]i release in HEK-293s cells stably expressing CCR1 (-log of the EC50) (CCR1 receptor): 8.42
Molecule: CKβ8 (aa22-120) (from UniProt P55773 22-120) (ligand)

pEC50 (n = 4), [Ca2+]i release in HEK-293s cells stably expressing CCR1 (-log of the EC50) (CCR1 receptor): 8.88
Molecule: CKβ8 (aa46-120) (from UniProt P55773 46-120) (ligand)

pEC50 (n = 4), [Ca2+]i release in HEK-293s cells stably expressing CCR1 (-log of the EC50) (CCR1 receptor): 7.42 | Intracellular Ca2+ mobilization pEC50 (n = 3), HEK-293s cells (-log of the EC50) [1]: < 5.7
Molecule: CKβ8-1 (aa22-137) (from UniProt P55773 22-137) (ligand)

EC50 (FPRL-1; Intracellular Ca2+ mobilization pEC50 (n = 3), HEK-293s cells co-expressing Gα16 and FPRL-1, mean±s.e. mean): 70.8 nM
Molecule: LWRRKIGPQMTLSHAAG [SHAAG peptide]

pEC50 (n = 4), [Ca2+]i release in HEK-293s cells stably expressing CCR1 (-log of the EC50) (CCR1 receptor): 8.14 | EC50, intracellular calcium mobilization (FLIPR), HEK-293s cells stably expressing hFPRL-1 in Gα16 background, n = 1 [1]: 6.55 nM | EC50, intracellular calcium mobilization (FLIPR), HEK-293s cells stably expressing hFPRL-1 in Gα16 background, n = 2 [1]: 0.52 nM | Emax, intracellular calcium mobilization (FLIPR), HEK-293s cells stably expressing hFPRL-1 in Gα16 background, n = 1 [1]: 12100 RFU | Emax, intracellular calcium mobilization (FLIPR), HEK-293s cells stably expressing hFPRL-1 in Gα16 background, n = 2 [1]: 21300 RFU | Emax, intracellular calcium mobilization (FLIPR), HEK-293s transiently expressing hFPRL-1 in Gα16 background, n = 1 [1]: 8480 RFU | Emax, intracellular calcium mobilization (FLIPR), HEK-293s transiently expressing hFPRL-1 in Gα16 background, n = 2 [1]: 6330 RFU | Intracellular Ca2+ mobilization pEC50 (n = 3), HEK-293s cells (-log of the EC50) [1]: 8.85
Molecule: recombinant human CKβ8-1 (aa46-137) (from UniProt P55773 46-137) (ligand)
